From the supplement of paper PMC12217912
This is one part of the list. The full chains were built here from the parent and the listed change. Inactive controls read about 0.05.

B1: TEV protease; numbered along this chain (parent)
chain: MGESLFKGPRDYNPISSSICHLTNESDGHTTSLYGIGFGPFIITNKHLFRRNNGTLVVQSLHGVFKVKDTTTLQQHLVDGRDMIIIRMPKDFPPFPQKLKFREPQREERICLVTTNFQTKSMSSMVSDTSCTFPSGDGIFWKHWIQTKDGQCGSPLVSTRDGFIVGIHSASNFTNTNNYFTSVPKNFMELLTNQEAQQWVSGWRLNADSVLWGGHKVFMVKPEEPFQPVKEATQL

Variants of: B1
Experiment: raw area under fraction-flipped curve 0-4 h after induction (AUC4h, not background-subtracted), DNA-recorder readout of cleavage of the substrate (dimensionless); higher = more cleavage of the substrate by the protease variant
Settings: temperature: 34 °C; time window: 0-4 h after rhamnose induction
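Also: Bxb1 expression induced with 0.2% (w/v) L-rhamnose at OD600 near 0.5, cultures sampled hourly, flipped fraction per protease–substrate barcode pair counted by paired-end Illumina sequencing.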

Variant	area with substrate CNLYFQS	area with substrate FNLYFQS	area with substrate GNLYFQS	area with substrate HNLYFQS	area with substrate KNLYFQS	area with substrate LNLYFQS	area with substrate MNLYFQS	area with substrate NNLYFQS	area with substrate PNLYFQS	area with substrate QNLYFQS	area with substrate WNLYFQS	area with substrate RNLYFQS	area with substrate SNLYFQS	area with substrate YNLYFQS	area with substrate TNLYFQS	area with substrate INLYFQS	area with substrate VNLYFQS
MGESLFKGPRDYNPISSSICHLTNESDGHTTSLYGIGFGPFIITNKHLFRRNNGTLVVQSLHGVFKVKDTTTLQQHLVDGRDMIIIRMPKDFPPFPQKLKFREPQREERICLVTTNFQTKSMSSMVSDTSCTFPSGDGIFWKHWMQTKDGQCGSPLVSTRDGFIVGIHSASNFTNTNNYFTSVPKNFMELLTNQEAQQWVSGWRLNADSVLWGGHKVFMVKPEEPFQPVKEATQL [I145M]	0.0449	0.0747	0.0634	0.0528	0.0552	0.0545	0.0604	0.0486	0.0691	0.0513	0.0558						
MGESLFKGPRDYNPISSSICHLTNESDGHTTSLYGIGFGPFIITNKHLFRRNNGTLVVQSLHGVFKVKDTTTLQQHLVDGRDMIIIRMPKDFPPFPQKLKFREPQREERICLVTTNFQTKSMSSMVSDTSCTFPSGDGIFWKHWIATKDGQCGSPLVSTRDGFIVGIHSASNFTNTNNYFTSVPKNFMELLTNQEAQQWVSGWRLNADSVLWGGHKVFMVKPEEPFQPVKEATQL [Q146A]	0.0636		0.0891	0.0729		0.0644		0.0748	0.0733		0.0601	0.068	0.0733	0.0571			
MGESLFKGPRDYNPISSSICHLTNESDGHTTSLYGIGFGPFIITNKHLFRRNNGTLVVQSLHGVFKVKDTTTLQQHLVDGRDMIIIRMPKDFPPFPQKLKFREPQREERICLVTTNFQTKSMSSMVSDTSCTFPSGDGIFWKHWIFTKDGQCGSPLVSTRDGFIVGIHSASNFTNTNNYFTSVPKNFMELLTNQEAQQWVSGWRLNADSVLWGGHKVFMVKPEEPFQPVKEATQL [Q146F]	0.0676		0.0656						0.0542		0.0577				0.0697		
MGESLFKGPRDYNPISSSICHLTNESDGHTTSLYGIGFGPFIITNKHLFRRNNGTLVVQSLHGVFKVKDTTTLQQHLVDGRDMIIIRMPKDFPPFPQKLKFREPQREERICLVTTNFQTKSMSSMVSDTSCTFPSGDGIFWKHWIHTKDGQCGSPLVSTRDGFIVGIHSASNFTNTNNYFTSVPKNFMELLTNQEAQQWVSGWRLNADSVLWGGHKVFMVKPEEPFQPVKEATQL [Q146H]	0.0543				0.0872	0.0711			0.0756		0.0606			0.0449	0.0895	0.0541	0.0696
MGESLFKGPRDYNPISSSICHLTNESDGHTTSLYGIGFGPFIITNKHLFRRNNGTLVVQSLHGVFKVKDTTTLQQHLVDGRDMIIIRMPKDFPPFPQKLKFREPQREERICLVTTNFQTKSMSSMVSDTSCTFPSGDGIFWKHWISTKDGQCGSPLVSTRDGFIVGIHSASNFTNTNNYFTSVPKNFMELLTNQEAQQWVSGWRLNADSVLWGGHKVFMVKPEEPFQPVKEATQL [Q146S]	0.0608	0.0684		0.0743		0.0448				0.0856				0.0619	0.0541	0.0614	
MGESLFKGPRDYNPISSSICHLTNESDGHTTSLYGIGFGPFIITNKHLFRRNNGTLVVQSLHGVFKVKDTTTLQQHLVDGRDMIIIRMPKDFPPFPQKLKFREPQREERICLVTTNFQTKSMSSMVSDTSCTFPSGDGIFWKHWIWTKDGQCGSPLVSTRDGFIVGIHSASNFTNTNNYFTSVPKNFMELLTNQEAQQWVSGWRLNADSVLWGGHKVFMVKPEEPFQPVKEATQL [Q146W]	0.0696			0.0531		0.0814	0.113				0.0627			0.0317	0.114	0.0556	
MGESLFKGPRDYNPISSSICHLTNESDGHTTSLYGIGFGPFIITNKHLFRRNNGTLVVQSLHGVFKVKDTTTLQQHLVDGRDMIIIRMPKDFPPFPQKLKFREPQREERICLVTTNFQTKSMSSMVSDTSCTFPSGDGIFWKHWIQAKDGQCGSPLVSTRDGFIVGIHSASNFTNTNNYFTSVPKNFMELLTNQEAQQWVSGWRLNADSVLWGGHKVFMVKPEEPFQPVKEATQL [T147A]	0.068	0.0634	0.057	0.0457	0.0494						0.0589		0.0476	0.0639	0.061		0.0605
MGESLFKGPRDYNPISSSICHLTNESDGHTTSLYGIGFGPFIITNKHLFRRNNGTLVVQSLHGVFKVKDTTTLQQHLVDGRDMIIIRMPKDFPPFPQKLKFREPQREERICLVTTNFQTKSMSSMVSDTSCTFPSGDGIFWKHWIQHKDGQCGSPLVSTRDGFIVGIHSASNFTNTNNYFTSVPKNFMELLTNQEAQQWVSGWRLNADSVLWGGHKVFMVKPEEPFQPVKEATQL [T147H]	0.0625	0.0559				0.0806			0.0605		0.0685	0.0624				0.0638	
MGESLFKGPRDYNPISSSICHLTNESDGHTTSLYGIGFGPFIITNKHLFRRNNGTLVVQSLHGVFKVKDTTTLQQHLVDGRDMIIIRMPKDFPPFPQKLKFREPQREERICLVTTNFQTKSMSSMVSDTSCTFPSGDGIFWKHWIQKKDGQCGSPLVSTRDGFIVGIHSASNFTNTNNYFTSVPKNFMELLTNQEAQQWVSGWRLNADSVLWGGHKVFMVKPEEPFQPVKEATQL [T147K]	0.0605		0.0638	0.0549	0.0705					0.0454	0.0506	0.048			0.0573	0.0575	0.0596
MGESLFKGPRDYNPISSSICHLTNESDGHTTSLYGIGFGPFIITNKHLFRRNNGTLVVQSLHGVFKVKDTTTLQQHLVDGRDMIIIRMPKDFPPFPQKLKFREPQREERICLVTTNFQTKSMSSMVSDTSCTFPSGDGIFWKHWIQTHDGQCGSPLVSTRDGFIVGIHSASNFTNTNNYFTSVPKNFMELLTNQEAQQWVSGWRLNADSVLWGGHKVFMVKPEEPFQPVKEATQL [K148H]	0.0631	0.069	0.0598	0.0671	0.0763	0.0647	0.0586		0.0375	0.0592	0.0596	0.0549	0.0761	0.0709	0.0585	0.0585	0.0609
MGESLFKGPRDYNPISSSICHLTNESDGHTTSLYGIGFGPFIITNKHLFRRNNGTLVVQSLHGVFKVKDTTTLQQHLVDGRDMIIIRMPKDFPPFPQKLKFREPQREERICLVTTNFQTKSMSSMVSDTSCTFPSGDGIFWKHWIQTVDGQCGSPLVSTRDGFIVGIHSASNFTNTNNYFTSVPKNFMELLTNQEAQQWVSGWRLNADSVLWGGHKVFMVKPEEPFQPVKEATQL [K148V]	0.0672		0.0666	0.0705	0.0641	0.0674		0.0737			0.0641				0.0672	0.0659	0.0057
MGESLFKGPRDYNPISSSICHLTNESDGHTTSLYGIGFGPFIITNKHLFRRNNGTLVVQSLHGVFKVKDTTTLQQHLVDGRDMIIIRMPKDFPPFPQKLKFREPQREERICLVTTNFQTKSMSSMVSDTSCTFPSGDGIFWKHWIQTKLGQCGSPLVSTRDGFIVGIHSASNFTNTNNYFTSVPKNFMELLTNQEAQQWVSGWRLNADSVLWGGHKVFMVKPEEPFQPVKEATQL [D149L]	0.0652	0.0457	0.0377	0.0244		0.068		0.069	0.0614		0.0549		0.0751	0.0482	0.0605		0.0586
MGESLFKGPRDYNPISSSICHLTNESDGHTTSLYGIGFGPFIITNKHLFRRNNGTLVVQSLHGVFKVKDTTTLQQHLVDGRDMIIIRMPKDFPPFPQKLKFREPQREERICLVTTNFQTKSMSSMVSDTSCTFPSGDGIFWKHWIQTKDDQCGSPLVSTRDGFIVGIHSASNFTNTNNYFTSVPKNFMELLTNQEAQQWVSGWRLNADSVLWGGHKVFMVKPEEPFQPVKEATQL [G150D]	0.0602	0.0485	0.0914	0.0527					0.0625					0.0514	0.055		
MGESLFKGPRDYNPISSSICHLTNESDGHTTSLYGIGFGPFIITNKHLFRRNNGTLVVQSLHGVFKVKDTTTLQQHLVDGRDMIIIRMPKDFPPFPQKLKFREPQREERICLVTTNFQTKSMSSMVSDTSCTFPSGDGIFWKHWIQTKDIQCGSPLVSTRDGFIVGIHSASNFTNTNNYFTSVPKNFMELLTNQEAQQWVSGWRLNADSVLWGGHKVFMVKPEEPFQPVKEATQL [G150I]	0.0583	0.0831		0.0719	0.0688		0.0563		0.0543	0.0283	0.0486		0.0608	0.0612	0.0584	0.0506	0.0681
MGESLFKGPRDYNPISSSICHLTNESDGHTTSLYGIGFGPFIITNKHLFRRNNGTLVVQSLHGVFKVKDTTTLQQHLVDGRDMIIIRMPKDFPPFPQKLKFREPQREERICLVTTNFQTKSMSSMVSDTSCTFPSGDGIFWKHWIQTKDGDCGSPLVSTRDGFIVGIHSASNFTNTNNYFTSVPKNFMELLTNQEAQQWVSGWRLNADSVLWGGHKVFMVKPEEPFQPVKEATQL [Q151D]	0.0641	0.0705		0.0808	0.0736	0.0773	0.0703	0.0635	0.0696		0.0664	0.0532	0.0896		0.066	0.0699	
MGESLFKGPRDYNPISSSICHLTNESDGHTTSLYGIGFGPFIITNKHLFRRNNGTLVVQSLHGVFKVKDTTTLQQHLVDGRDMIIIRMPKDFPPFPQKLKFREPQREERICLVTTNFQTKSMSSMVSDTSCTFPSGDGIFWKHWIQTKDGQNGSPLVSTRDGFIVGIHSASNFTNTNNYFTSVPKNFMELLTNQEAQQWVSGWRLNADSVLWGGHKVFMVKPEEPFQPVKEATQL [C152N]	0.0564	0.0624		0.0555		0.0553	0.0472	0.0562	0.0109		0.0599		0.0564	0.0622	0.0682		
MGESLFKGPRDYNPISSSICHLTNESDGHTTSLYGIGFGPFIITNKHLFRRNNGTLVVQSLHGVFKVKDTTTLQQHLVDGRDMIIIRMPKDFPPFPQKLKFREPQREERICLVTTNFQTKSMSSMVSDTSCTFPSGDGIFWKHWIQTKDGQCKSPLVSTRDGFIVGIHSASNFTNTNNYFTSVPKNFMELLTNQEAQQWVSGWRLNADSVLWGGHKVFMVKPEEPFQPVKEATQL [G153K]	0.0891		0.045	0.046	0.0432	0.0322	0.0486		0.0465				0.0528				
MGESLFKGPRDYNPISSSICHLTNESDGHTTSLYGIGFGPFIITNKHLFRRNNGTLVVQSLHGVFKVKDTTTLQQHLVDGRDMIIIRMPKDFPPFPQKLKFREPQREERICLVTTNFQTKSMSSMVSDTSCTFPSGDGIFWKHWIQTKDGQCGKPLVSTRDGFIVGIHSASNFTNTNNYFTSVPKNFMELLTNQEAQQWVSGWRLNADSVLWGGHKVFMVKPEEPFQPVKEATQL [S154K]	0.0667	0.0474	0.0582	0.0487	0.0563	0.0572	0.0557	0.0693			0.0525		0.0523		0.0553	0.0567	
MGESLFKGPRDYNPISSSICHLTNESDGHTTSLYGIGFGPFIITNKHLFRRNNGTLVVQSLHGVFKVKDTTTLQQHLVDGRDMIIIRMPKDFPPFPQKLKFREPQREERICLVTTNFQTKSMSSMVSDTSCTFPSGDGIFWKHWIQTKDGQCGTPLVSTRDGFIVGIHSASNFTNTNNYFTSVPKNFMELLTNQEAQQWVSGWRLNADSVLWGGHKVFMVKPEEPFQPVKEATQL [S154T]	0.0695	0.0644	0.0755					0.0732			0.0501			0.0888	0.081		0.053
MGESLFKGPRDYNPISSSICHLTNESDGHTTSLYGIGFGPFIITNKHLFRRNNGTLVVQSLHGVFKVKDTTTLQQHLVDGRDMIIIRMPKDFPPFPQKLKFREPQREERICLVTTNFQTKSMSSMVSDTSCTFPSGDGIFWKHWIQTKDGQCGYPLVSTRDGFIVGIHSASNFTNTNNYFTSVPKNFMELLTNQEAQQWVSGWRLNADSVLWGGHKVFMVKPEEPFQPVKEATQL [S154Y]	0.0552	0.0625	0.055				0.0587	0.0633			0.0646				0.0537		0.0612
